# According to PubChem BioAssay AID504466 (National Center for Advancing Translational Sciences (NCATS), 2011):
# Hit rate of the full screen: of about 330,000 compounds, about 4,200 (1.3%) were called active. Inconclusive results, whose numbers are uncertain, are shown with a selection of clear calls. The call rests on the fitted dose curve; in most records, active means well fitted activation curve with a large enough effect; inconclusive means small, poorly fitted or top-dose-only effect; inactive means no such curve, though single readings can be large or run the other way. Where the call is inconclusive, the potency comes from a doubtful curve fit.
# Experiment: qHTS screen for small molecules that induce genotoxicity in human embryonic kidney (HEK293T) cells expressing luciferase-tagged ELG1; further: nearly all actives have a fitted effect of over 60% in size
# Conditions: HEK293T ELG1-luciferase reporter, luminescence, 16 h; series mostly up to 46 µM
# How it was run: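 Quantitative HTS format in 1536-well plates. HEK293T ELG1-luciferase reporter cells receive test compound and are incubated 16 hr at 37 °C, 5% CO2; ONE-Glo added, 30 min room temperature, then luminescence read.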
# Potency means the concentration at half of the fitted maximal effect; tags describe the fitted curve by direction and shape.
row,Structure (SMILES),Potency
1,Cc1ccc2nc(N/C(=N/S(=O)(=O)c3ccc(F)cc3)c3ccccc3)sc2c1,inactive
2,CN(Cc1ccccc1)C(=O)c1cc2ccccc2o1,"inconclusive: 23.1 µM [activator, partial curve, poor fit]"
3,NC(=O)/C=C/C(=O)Nc1ccc(Cl)cc1,inactive
4,CC(C)[C@H](NC(=O)c1ccccc1F)C(=O)OCCN1C(=O)c2ccccc2C1=O,inactive
5,CCN(CC)c1ccc(C(=O)OCC(=O)Nc2ccc3[nH]c(=O)[nH]c3c2)cc1,inactive
6,CC(Cc1ccccn1)NC(=O)c1ccc(OC2CCN(Cc3ccccn3)CC2)cc1 (centres undefined),"inconclusive: 4.61 µM [activator, partial curve, poor fit]"
7,COc1cccc(/C=N/NC(=O)C(=O)N2CCCCCC2)c1O,"inconclusive: 23.1 µM [activator, single point]"
8,COc1ccc(S(=O)(=O)N2CCOC2CNC(=O)C(=O)NCc2ccco2)cc1C (centres undefined),inactive
9,O=C(OCCOc1ccccc1)c1n[nH]c2ccccc12,"inconclusive: 2.59 µM [activator, full curve, poor fit]"
10,Cc1ccsc1/C=N/NC(=O)c1ccc2ccccc2c1,"inconclusive: 4.61 µM [activator, full curve, poor fit]"
11,CCS(=O)(=O)n1nc(-c2ccc(OC)cc2)nc1SC,"inconclusive: 10.3 µM [activator, partial curve]"
12,C=C(c1ccccc1C)[n+]1ccccc1,inactive
13,COc1ccc(C(=O)Cn2nnc(-c3ccccc3F)n2)cc1,inactive
14,CN(CC(=O)Nc1ccccc1Br)c1ncnc2sccc12,inactive
15,Cc1ccc(NC(=O)NC(=O)c2cnccc2C(F)(F)F)c(C)c1,inactive
16,COc1cc(OC)c(NC(=O)/C=C/C(=O)O)cc1Cl,inactive
17,Cc1cc(C=C2C(=O)c3ccccc3C2=O)c(C)n1-c1ccc(Cl)cc1,active: 4.61 µM
18,O=c1/c(=C\c2ccc(F)cc2)sc2n1CCCN=2,"inconclusive: 8.2 µM [activator, partial curve]"
19,CSc1ncccc1C(=O)OCc1ccccc1,"inconclusive: 18.4 µM [activator, single point]"
20,CCC(=O)Nc1cccc(NC(=O)COc2ccc(OC)cc2)c1,"inconclusive: 20.6 µM [activator, partial curve, poor fit]"
21,CC(C)(C)c1cc(C(=S)N2CCCC2)cc(C(C)(C)C)c1O,inactive
22,N/C(=N\OC(=O)c1ccc(Cl)cc1)c1cccnc1,active: 8.91 µM
23,CC1(C)C=Cc2cc3ccc(=O)oc3cc2O1,"inconclusive: 23.1 µM [activator, single point]"
24,Cc1ccc(/C=N\NC(=O)c2ccc3c(c2)OCO3)o1,"inconclusive: 14.6 µM [activator, single point]"
25,Cc1nc(SCC(=O)Nc2cccc(Cl)c2)n[nH]1,inactive

row,Structure (SMILES),Potency
1,CC(=O)OCc1nc2ccccc2s1,"inconclusive: 16.4 µM [activator, partial curve]"
2,CN1CCCN(Cc2nc(-c3cccc(C(F)(F)F)c3)no2)CC1,inactive
3,C=CCn1c(N)c(C(=O)NCCC2=CCCCC2)sc1=S,"inconclusive: 14.6 µM [activator, partial curve, poor fit]"
4,N/C(=N\OC(=O)c1cccc2ccccc12)c1ccncc1,"inconclusive: 16.4 µM [activator, single point]"
5,Fc1ccccc1Nc1n[nH]c(=S)s1,"inconclusive: 14.6 µM [activator, partial curve, poor fit]"
6,O=C(Nc1ccc(F)cc1F)c1cc2nc3c(c(C(F)(F)F)n2n1)CCCC3,"inconclusive: 2.06 µM [activator, partial curve, poor fit]"
7,CCOC(=O)C1(Cc2ccc(OC)cc2)CCN(C(=O)c2cc(C)nn2C)CC1,inactive
8,COc1ccc(OC)c(C(=O)c2ccc(C(=O)Nc3ccc(NC(C)=O)cc3)cc2)c1,"inconclusive: 20.6 µM [activator, single point]"
9,O=C1COc2ccc(C(=O)COC(=O)c3ccco3)cc2N1,inactive
10,CCOc1ccc(CNC(=O)CCCOc2cc(=O)n(C)c3ccccc23)cc1,"inconclusive: 23.1 µM [activator, single point]"
11,Cc1ccc(NC(=O)c2ncn(CC(=O)NCc3ccccc3)n2)cc1C,"inconclusive: 11.6 µM [activator, partial curve, poor fit]"
12,CN(C)c1ccnc2sc(C(=O)NCc3ccccc3)c(N)c12,"inconclusive: 12.6 µM [activator, partial curve, poor fit]"
13,Cc1ccc(S(=O)(=O)Nc2cccc(-c3ccc(N4CCCCCC4)nn3)c2)c(C)c1,"inconclusive: 3.26 µM [activator, full curve, poor fit]"
14,Cc1nc2ccccc2c2nc(NC(=O)Cc3ccccc3)nn12,"inconclusive: 23.1 µM [activator, partial curve, poor fit]"
15,COc1ccccc1-c1cc2ccccc2[nH]1,"inconclusive: 18.4 µM [activator, partial curve, poor fit]"
16,COC(=O)c1c(-c2ccc(SC)cc2)sc2ccc(OC)cc12,"inconclusive: 7.3 µM [activator, partial curve, poor fit]"
17,Cc1ccccc1OCc1nc2ccccc2c(=O)n1N,"inconclusive: 20.6 µM [activator, partial curve]"
18,Cc1ccc(NC(=O)c2cc(C)on2)cc1,"inconclusive: 5.17 µM [activator, partial curve]"
19,Cc1nnc2c(NC3CCCC3)nc3ccccc3n12,"inconclusive: 18.3 µM [activator, partial curve, poor fit]"
20,O=C(Nc1nc2ccccc2s1)Nc1ccc(F)cc1F,active: 4.11 µM
21,COc1cccc(/C=N/Nc2nc3ccccc3[nH]2)c1O,"inconclusive: 18.3 µM [activator, single point]"
22,CS(=O)(=O)N1CCC(C(=O)Nc2ccccc2Br)CC1,inactive
23,CCOc1ccc(S(=O)(=O)N2CCCC(C(=O)NCc3ccccn3)C2)cc1 (centres undefined),inactive
24,CC(=O)NCc1ccc(C(=O)CCl)s1,"inconclusive: 18.3 µM [activator, single point]"
